These results are taken from the RNAGym collection of RNA variant scans (doi:10.1093/nar/gkz1192).

The labels stand for the following.
B1: CPEB3 Ribozyme (parent)
chain: UAACAGGGGGCCACAGCAGAAGCGUUCACGUCGCAGCCCCUGUCAGAUUCUGGUGAAUCUGCGAAUUCUGCUGUAUAUCUC

The source gives no read counts; variants with many changes may rest on few reads.

Variants of B1 are the subject of this series. As to the kind of experiment: self-cleavage, relative activity (ratio to wild type); higher = more cleavage; in vitro, sequencing. In short, it runs like this: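 Relative activity compares each variant's cleaved/total read fraction with that of the unmutated ribozyme. To get these fractions, barcoded CPEB3 ribozyme libraries from rounds of error-prone PCR were transcribed with T7 RNA polymerase for 5 hours at 37°C and then given 15 min of DNase I treatment before EDTA was added. The RNAs were reverse transcribed with template switching and sequenced on Illumina, and DNA sequencing linked barcodes to variants. A minimum of 5 reads applied, and three batches were averaged.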
In the case of UAGCAGGGGGCCACAGCAGAAGCGUUCGCGUCGCAGCCCCCGUCAGAUUCUGGUGAAUCUGCGAAUUCUGCUGUAUAUCUC [A3G A28G U41C], the self-cleavage amounted to 0.77. In the case of UAGCAGGGGGCCACAGCAGAAGCGUUCGCGUCGUAGCCCCUGUCAGGUUCUGGUGAAUCUGCGAAUUCUGCUGCAGAUCUC [A3G A28G C34U A47G U74C U76G], the self-cleavage came to 0.07. For the variant UAGCAGGGGGCCACAGCAGAAGCGUUCACGUCGCAGCCCCUGUCAGAUUCUGGUGGUUCUGCGGAUUCUGCUGUAUAUCUC [A3G A56G A57U A64G], the self-cleavage stood at 0.19. With UAGCAGGGGGCCACAGCAGAAGCGUUCACGUCGCUGCCCCUGUCAGAUUCUGGUGCAUCUGCGAAUUCUGCUGUAUAUCUC [A3G A35U A56C], the self-cleavage was determined as 0.46. For UAGCAGGGGGCCACAGCAGAAGCGUUCACGUCGCAGCCCCUGUCAGAUUCUGGUGAAUCUGCGGAUUCCGCUGUAUAUCAC [A3G A64G U69C U80A], the self-cleavage is 0.34. Take UAGCAGGGGGCCACAGCAGAAGCGUUCACGUCGCUGCCCCUGUCAGAUACUGGUGAAUCUGCGAGUUCUGCUGUAUAUCUC [A3G A35U U49A A65G]: the self-cleavage worked out at 0.19. On to UAGCAGGGGGCCACAGCAGAAGCGUUCUCGUCGCAGCCCCUGUCAGAUUCUGGUGAAUCUGCGCAUUCUGCUGUAUAUCUC [A3G A28U A64C], for which the self-cleavage was 0.44. Take UAGCAGGGGGCCACAGCAGAAGCGUUCACGUCGCAGCCCCUGUCAGGUUCAGGUGUAUCUGCGUAUUCUGCUGUAUAUCUC [A3G A47G U51A A56U A64U]: the self-cleavage stood at 0.2. Take UAGCAGGGGGCCACAGCAGAAGCGUUCACGUCGCAGCCCCUGUCGGAUUCUGGUGAAUCUGCGAAUUCUGCAGUAUAUCUC [A3G A45G U72A]: the self-cleavage turned out to be 0.34. In the case of UAGCAGGGGGCCACAGCAGAAGCGUUCACGUCGCAGCCCCUGUCGGACUCUGGUGAAACUGCGAAUUCUGCUGUAUAUCUC [A3G A45G U48C U58A], the self-cleavage is 0.08.

For UAGCAGGGGGCCACAGCAGAAGCGUUCACGUCGCGGCCCCUGUCAGAUUCCGGUGAAUCUGCGAAUUCUGCUGUAUAUCUC [A3G A35G U51C], the self-cleavage worked out at 1.27. Turning to UAGCAGGGGGCCACAGCAGAAGCGUUCACGUCGCAGCCCCUGUCAGAUUCUGGUGAAUCUGCGAAUUCUGCUGUGUGUCUC [A3G A75G A77G], the self-cleavage stood at 0.57. As to UAGCAGGGGGCCACAGCAGAAGCGUUCACGUCGCAGCCCCUGUCAGAUUCUGGUGGAUCUGCGAAUUCUGCUGUAUGUCUC [A3G A56G A77G], the self-cleavage worked out at 0.88. Regarding UAGCAGGGGGCCACAGCAGAAGCGUUCACGUCGCUGCCCUUGUCAGACUCUGGUGAAUCUGCGAGAUCUGCUGUAUAUCUC [A3G A35U C40U U48C A65G U66A], the self-cleavage was found to be 0.16. UAGCAGGGGGCCACAGCAGAAGCGUUCGCGUCGCAGCCCCUGUCAGAUUCUGGUGAAUCUGGGAAUUCUGCUGUAUAUCUC [A3G A28G C62G]: the self-cleavage was 0.15. As for UAGCAGGGGGCCACAGCAGAAGCGUUCACGUCGCAGCCCCUGUCUGAUUCUGGUGAAUCUGCGGAAUCUGCUGUAUAUCUC [A3G A45U A64G U66A], the figure is 0.27; as for UAGCAGGGGGCCACAGCAGAAGCGUUCACGUCGCAGCCCCUGUCCGAUUAUGGUGAAUCUGCGAAUUCUGCUGUAUAUCCC [A3G A45C C50A U80C], 0.38. In the case of UAGCAGGGGGCCACAGCAGAAGCGUUCACGUCGCGGCCCCUGUCAGAUUCUGAUGAAUCCGCGAAUUCCGCUGUAUAUCUC [A3G A35G G53A U60C U69C], the self-cleavage was 0.87. Consider UAGCAGGGGGCCACAGCAGAAGCGUUCACGUCGCCGCCCCUGUCAGAUUGCGGUGAAUCUGCGAAUACUGCUGUAUAUCUC [A3G A35C C50G U51C U67A], for which the self-cleavage came to 0.13. As for UAGCAGGGGGCCACAGCAGAAGCGUUCACGUCGCAGCCCCUGUCGGAUUCUGGUGAAUCUGCGAAUACUGCUGUAUAUCUC [A3G A45G U67A], the figure is 0.25; as for UAGCAGGGGGCCACAGCAGAAGCGUUCUCGUCGCAGCCCCUGUCAGAUUCUGGUGAAUCUGCGAAUUCUGCAGUAUAUCUC [A3G A28U U72A], 0.82. In the case of UAGCAGGGGGCCACAGCAGAAGCGUUCACGUCGCCGCCCCUGUCAGAUUCUGGUGAAUCUGCGAAUUCUGCUGCAUAUCUC [A3G A35C U74C], the self-cleavage was 1.19.

On to UAGCAGGGGGCCACAGCAGAAGCGUUCACGUCGCUGCCCCUGUCAGAUUCUGGUGAAUCUGCGAAUUCUGCUGUCUAUCUC [A3G A35U A75C], for which the self-cleavage amounted to 0.57.

On to UAGCAGGGGGACACAGCAGAAGCGUUCACGUCGCAGCCCCUGUCAGACUCUGGUGAAUCUGCGAAUUCUGCUGUAUAUCUC [A3G C11A U48C], for which the self-cleavage was 0.09. Turning to UAGCAGGGGGCCACAGCAGAAGCGUUCACGUCGCGGCCCCUGUCUGGUUCUGGUGAAUCUGCGAACUCUGCUGUAUAUCUC [A3G A35G A45U A47G U66C], the self-cleavage amounted to 0.43. Regarding UAGCAGGGGGCCACAGCAGAAGCGUUCACGUCGCGGCCCCCGUCAGAUUCUGGUGAAUCCGCGAAUUCUGCUGUAUACCUC [A3G A35G U41C U60C U78C], the self-cleavage came to 1.16. Take UAGCAGGGGGCCACAGCAGAAGCGUUCACGUCGCAGCCCCUGUCAGAUUCUGGUGAAUCUGCGAAUUCUGCUGUGUAACUC [A3G A75G U78A]: the self-cleavage was found to be 0.92.

Regarding UAGCAGGGGGCCACAGCAGAAGCGUUCACGUCGCGGCCCCUGUCAGAUUCUGGUGUAUCUGCGAAUCCUGCUGUAUAUGCC [A3G A35G A56U U67C C79G U80C], the self-cleavage was 0.86.

With UAGCAGGGGGCCACAGCAGAAGCGUUCACGUCGCUGCCCCUGUCAGAUUCUGGCGGAUCUGCGAAUUCUGCUGUAUAUCUC [A3G A35U U54C A56G], the self-cleavage was found to be 0.45. For the variant UAGCAGGGGGCCACAGCAGAAGCGUUCACGUCGCAGCCCCUGUCUGAUUCUGGCGAAUCUGCGAAUUCUGCAGUAUAUCUC [A3G A45U U54C U72A], the self-cleavage was determined as 0.39. Take UAGCAGGGGGCCACAGCAGAAGCGUUCGCGUCGCAGCCCCUGUCAGGCUCUGGUGAAUCUGCGAAUUCUGCUGUAUUUCUC [A3G A28G A47G U48C A77U]: the self-cleavage was determined as 0.58. With UAGCAGGGGGCCACAGCAGAAGCGUUCACGUCGCUGCCCCUGUCGGACUCUGGUGAAUCUGCGAAUUCUGCUGUAUAUCUC [A3G A35U A45G U48C], the self-cleavage worked out at 0.07. In the case of UAGCAGGGGGGCACAGCAGAAGCGUACACGUCGCAGCCCCUGUCAGAUUCUGGUGAAUCUGCGAAUCCUGCAGUAUAUCUC [A3G C11G U26A U67C U72A], the self-cleavage was determined as 0.05.

Take UAGCAGGGGGCCACAGCAGAAGCGUUCGCGUCGCAGCCCCUGACAGAUUCUGGUGAAUCUGCGAAUUCUGCCGUAUAUCCC [A3G A28G U43A U72C U80C]: the self-cleavage was 0.85.
